# In ChEMBL document CHEMBL5606460, “ASAP - DENV-2 NS2B-NS3 protease fluorescence single point” (2024):
# The campaign covered roughly 2,000 compounds. About 110 (5.5%) showed an effect of 50% or more. The list shows a part of the results.
# Target: Genome polyprotein (dengue virus type 2) (UniProt P29990)
# [1] = Thailand/16681/1984, Concentration 25.0 uM, Number of replicates 1.0
smiles,measurement,setting,value
Cn1cc(NC(=O)c2ccccc2C(F)(F)F)c(-c2ccc(O)cc2)n1,inhibition,"Thailand/16681/1984, Concentration 49.5 uM, Number of replicates 2.0, Standard deviation 1.4149767575059302 %",-3.58%
same,inhibition,"Thailand/16681/1984, Concentration 99.01 uM, Number of replicates 2.0, Standard deviation 0.6191126751592 %",-2.21%
same,inhibition,"Thailand/16681/1984, Concentration 198.0 uM, Number of replicates 2.0, Standard deviation 0.2617465963559337 %",-3.21%
CC(C)Nc1nc2ccc(C(=O)Nc3ccc(-c4cc[nH]c4)cc3)cc2[nH]1,inhibition,"Thailand/16681/1984, Concentration 49.5 uM, Number of replicates 2.0, Standard deviation 2.5624181333066525 %",4.33%
same,inhibition,"Thailand/16681/1984, Concentration 99.01 uM, Number of replicates 2.0, Standard deviation 1.869489889133958 %",9.53%
same,inhibition,"Thailand/16681/1984, Concentration 198.0 uM, Number of replicates 2.0, Standard deviation 0.5444811431585344 %",3.37%
Cc1cc(N)cc(CNC(=O)Cc2cccc3c(CO)cc(C)nc23)c1,inhibition,"Thailand/16681/1984, Concentration 49.95 uM, Number of replicates 2.0, Standard deviation 0.21775017554498763 %",39.7%
same,inhibition,"Thailand/16681/1984, Concentration 99.9 uM, Number of replicates 2.0, Standard deviation 1.7887257377938661 %",61.7%
O=Cc1ccc(N2CCC(C(=O)N[C@H]3CC(=O)N(c4ccccc4Cl)C3)CC2)cc1,inhibition,[1],14.7%
Cc1ccc2[nH]cc(CCNC(=O)C3CCN(c4ccc(C=O)cc4)CC3)c2c1,inhibition,[1],13.2%
CNC(=O)c1cc(Cl)ccc1N(C)S(=O)(=O)c1ccc(Oc2ccccc2Cl)cc1,inhibition,"Thailand/16681/1984, Concentration 49.5 uM, Number of replicates 2.0, Standard deviation 1.1912141654334696 %",-2.39%
same,inhibition,"Thailand/16681/1984, Concentration 99.01 uM, Number of replicates 2.0, Standard deviation 1.3706697565683075 %",-0.121%
same,inhibition,"Thailand/16681/1984, Concentration 198.0 uM, Number of replicates 2.0, Standard deviation 0.031456216092408736 %",3.32%
NCc1cccc(NC(=O)[C@@H](NC(=O)OCc2ccccc2)c2ccc(Br)cc2)c1,inhibition,"Thailand/16681/1984, Concentration 49.5 uM, Number of replicates 2.0, Standard deviation 0.0939294781157427 %",-4.11%
same,inhibition,"Thailand/16681/1984, Concentration 99.01 uM, Number of replicates 2.0, Standard deviation 0.02096957442071617 %",99.8%
same,inhibition,"Thailand/16681/1984, Concentration 198.0 uM, Number of replicates 2.0, Standard deviation 0.044447729264800756 %",99.8%
Cn1cc(CNC(=O)c2ccccc2-c2ccccn2)cn1,inhibition,"Thailand/16681/1984, Concentration 49.5 uM, Number of replicates 2.0, Standard deviation 0.6305384329094122 %",-4.1%
same,inhibition,"Thailand/16681/1984, Concentration 99.01 uM, Number of replicates 2.0, Standard deviation 1.5818396710958347 %",-3.63%
same,inhibition,"Thailand/16681/1984, Concentration 198.0 uM, Number of replicates 2.0, Standard deviation 13.69923462321725 %",5.85%
CCn1ccnc(N[C@@H](Cc2c[nH]c3ccccc23)C(N)=O)c1=O,inhibition,"Thailand/16681/1984, Concentration 49.5 uM, Number of replicates 2.0, Standard deviation 0.3575077765079599 %",-4.37%
same,inhibition,"Thailand/16681/1984, Concentration 99.01 uM, Number of replicates 2.0, Standard deviation 0.6094538818859584 %",-2.79%
same,inhibition,"Thailand/16681/1984, Concentration 198.0 uM, Number of replicates 2.0, Standard deviation 0.016494021650768593 %",-0.419%
O=Cc1ccc(N2CCC(C(=O)N(CC3CC3)C[C@H]3CCCO3)CC2)cc1,inhibition,[1],15.1%
COc1ccccc1CN(CCCO)C(=O)C1CCN(c2ccc(C=O)cc2)CC1,inhibition,[1],12.9%
CNC(=O)C[C@@H](C)NS(=O)(=O)c1ccc(Oc2ccccc2Cl)cc1,inhibition,"Thailand/16681/1984, Concentration 49.5 uM, Number of replicates 2.0, Standard deviation 1.3030195128486834 %",0.058%
same,inhibition,"Thailand/16681/1984, Concentration 99.01 uM, Number of replicates 2.0, Standard deviation 1.4693139392091605 %",1.01%
same,inhibition,"Thailand/16681/1984, Concentration 198.0 uM, Number of replicates 2.0, Standard deviation 0.5754244321045655 %",1.94%
C[C@H](NC(=O)C1CCN(c2ccc(C=O)cc2)CC1)c1ccccc1-n1cccn1,inhibition,[1],13.8%
CN(Cc1ccccc1Br)C(=O)C1CCN(c2ccc(C=O)cc2)CC1,inhibition,[1],14.2%
Cc1cc(CO)c2cccc(Cc3ccccc3NC(=O)CNC3CC3)c2n1,inhibition,"Thailand/16681/1984, Concentration 49.95 uM, Number of replicates 2.0, Standard deviation 1.188088976616387 %",6.18%
same,inhibition,"Thailand/16681/1984, Concentration 99.9 uM, Number of replicates 2.0, Standard deviation 0.5753510122944595 %",19.1%
Cn1cc(CNC(=O)c2ccccc2[C@@H]2CCCNC2)cn1,inhibition,"Thailand/16681/1984, Concentration 49.5 uM, Number of replicates 2.0, Standard deviation 2.319552439999781 %",-2.27%
same,inhibition,"Thailand/16681/1984, Concentration 99.01 uM, Number of replicates 2.0, Standard deviation 2.7533538173819676 %",-1.97%
same,inhibition,"Thailand/16681/1984, Concentration 198.0 uM, Number of replicates 2.0, Standard deviation 0.9200576529447512 %",-0.355%
Cc1cc(N)c2cc(Cl)cc(Cl)c2n1,inhibition,"Thailand/16681/1984, Concentration 49.95 uM, Number of replicates 2.0, Standard deviation 6.409809046838655 %",-7.04%
same,inhibition,"Thailand/16681/1984, Concentration 99.9 uM, Number of replicates 2.0, Standard deviation 7.891337195429833 %",-3.92%
COc1cccc(-c2cc(CNC(=O)C3CCN(c4ccc(C=O)cc4)CC3)on2)c1,inhibition,[1],1.16%
Cc1cc(CO)c2cccc(Cc3ccccc3NC(=O)C(=O)c3ccco3)c2n1,inhibition,"Thailand/16681/1984, Concentration 49.95 uM, Number of replicates 2.0, Standard deviation 0.9554561588063234 %",1.82%
same,inhibition,"Thailand/16681/1984, Concentration 99.9 uM, Number of replicates 2.0, Standard deviation 0.5615035809225083 %",6.45%
CCN(CC)C1CCN(C(=O)C2CCN(c3ccc(C=O)cc3)CC2)CC1,inhibition,[1],12.6%
Cc1c(C(=O)N2CCC(n3cc(CO)nn3)CC2)[nH]c2cc(Cl)cc(Cl)c12,inhibition,"Thailand/16681/1984, Concentration 49.5 uM, Number of replicates 2.0, Standard deviation 0.5692523106313726 %",-0.277%
same,inhibition,"Thailand/16681/1984, Concentration 99.01 uM, Number of replicates 2.0, Standard deviation 1.4870917854757075 %",1.31%
same,inhibition,"Thailand/16681/1984, Concentration 198.0 uM, Number of replicates 2.0, Standard deviation 1.8665932626763497 %",1.93%
